# In the supplement of paper PMC7335073:
# Over roughly 4,100 sequences, “relative CpG methylation activity (normalised to average over all NNNCGNNN flanks)” has its median near 0.94; the highest 2% begin near 1.9. The list shows a part of the results.
# Biological target: DNMT3B catalytic domain (mouse) (UniProt O88509)
# Experiment: relative CpG methylation activity (normalised to average over all NNNCGNNN flanks) (relative (1 = mean)); higher = more methylation of the central CpG
# Conditions: system: in vitro, murine catalytic domain; CpG state: hemimethylated substrate pool; residues: 558-859
# Outline: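 Murine DNMT3A or DNMT3B catalytic domain methylated pooled dsDNA substrates, each carrying a central CpG within 10 random flanking nucleotides, with 0.8 mM S-adenosyl-L-methionine in HEPES pH 7.5 buffer at 37 °C for 60 min. Proteinase K treatment, BsaI-HFv2 digestion, hairpin ligation, bisulfite conversion and two-step PCR preceded Illumina sequencing. Relative methylation activity is the average methylation of a flanking context divided by the mean across all contexts, where a context spans three bases on each side, and every experiment was repeated twice independently.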
# Chain of UniProt O88509 (O88509 558-859): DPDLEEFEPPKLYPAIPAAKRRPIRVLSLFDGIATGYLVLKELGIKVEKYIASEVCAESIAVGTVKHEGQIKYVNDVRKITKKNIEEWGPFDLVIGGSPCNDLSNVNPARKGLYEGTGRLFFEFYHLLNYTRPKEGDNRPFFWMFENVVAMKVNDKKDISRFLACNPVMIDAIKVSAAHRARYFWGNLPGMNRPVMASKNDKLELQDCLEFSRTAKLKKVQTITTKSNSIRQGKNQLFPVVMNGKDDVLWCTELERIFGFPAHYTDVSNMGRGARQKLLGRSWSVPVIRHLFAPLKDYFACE
row,Sequence,relative CpG methylation activity
1,GTTCGCAG,0.628
2,GAACGGAC,1.17
3,AAACGGTG,1.1
4,GGCCGTGG,0.0382
5,CACCGGAG,0.628
6,GGACGGCC,1.52
7,ATTCGCGG,0.818
8,TCTCGCAT,0.491
9,TGTCGACC,1.25
10,AGTCGCCG,0.957
11,GCACGAAG,1.11
12,TTTCGGGA,1.79
13,TTCCGACA,1.62
14,GAACGTAC,1.28
15,AGCCGCAC,0.35
16,CATCGTTC,0.911
17,GCGCGGCT,1.31
18,TAGCGTAA,0.597
19,TTTCGGCG,1.79
20,CGTCGTTT,0.292
21,TCACGTTG,0.752
22,GCTCGGAT,1.09
23,AGTCGGTC,1.44
24,GGACGGTT,0.784
25,TGCCGTGG,0.121

row,Sequence,relative CpG methylation activity
1,AAACGCTG,1.06
2,TGACGTGG,0.316
3,GTGCGATT,1.49
4,CTTCGAGA,1.95
5,CTTCGGAT,1.09
6,TATCGGGG,1.24
7,GCGCGCGT,0.468
8,GTGCGCGA,0.482
9,ACTCGACC,1.18
10,TATCGGTG,0.87
11,AAGCGGGC,0.837
12,AGACGGCA,1.56
13,AATCGCGA,0.413
14,CCACGCAC,1.03
15,TGCCGCTT,0.359
16,CCCCGCCG,1.02
17,AACCGCAG,0.172
18,AACCGAGG,1.09
19,TCTCGGTA,1.09
20,CGACGGGG,0.808
21,TTACGGAG,1.07
22,ACTCGCAT,0.531
23,TACCGAAT,1.18
24,TGTCGTAA,0.233
25,CCACGGGT,1.55

row,Sequence,relative CpG methylation activity
1,CGCCGACG,0.791
2,TGACGTTC,0.906
3,CATCGATA,1.88
4,CATCGGGC,1.77
5,GCGCGTTG,0.634
6,TTACGCCT,1.76
7,GGGCGCAG,0.154
8,CAACGCCC,1.54
9,TCGCGGTT,0.854
10,TATCGTTT,0.536
11,TGCCGGGC,0.926
12,CTCCGTGC,1.2
13,CTTCGAAG,1.28
14,GATCGTGC,0.318
15,ACTCGTCC,0.74
16,AGGCGCGT,0.179
17,CCCCGGCC,1.77
18,TGACGACA,1.03
19,CAGCGTGA,0.267
20,ACGCGAGG,1.04
21,AAGCGGTA,0.954
22,TTACGTTA,1.2
23,GCGCGCGA,0.459
24,AGTCGACT,1.56
25,GAACGAGT,1.39

row,Sequence,relative CpG methylation activity
1,ATTCGACG,1.07
2,ATTCGCCT,1.03
3,GAGCGTCC,0.679
4,TCTCGTCC,0.856
5,CTACGTAT,1.44
6,GTACGATC,1.73
7,GCGCGATT,1.06
8,CGACGGAT,0.71
9,ACGCGCGG,0.473
10,CGTCGGTA,1.03
11,ACGCGGGT,0.948
12,TTTCGCTC,1.08
13,TACCGGCC,1.52
14,TTCCGAAG,1.32
15,ACTCGCTC,0.857
16,GGCCGCCA,0.368
17,CCGCGTTA,0.612
18,TCGCGAAG,0.702
19,CTCCGAAA,1.57
20,CGTCGGAA,0.691
21,GTACGTGG,0.725
22,AGGCGTCT,0.521
23,CATCGCTG,0.624
24,TTACGCTC,1.73
25,CCACGTTC,1.14

row,Sequence,relative CpG methylation activity
1,TGGCGGAC,0.639
2,CATCGTTT,0.449
3,CTCCGTAT,0.722
4,TCACGCCA,1.28
5,GTTCGACA,1.29
6,TCTCGCTT,0.839
7,AGGCGCGG,0.295
8,TGGCGTTA,0.413
9,GGCCGTTT,0.256
10,ATCCGTCC,1.35
11,GTCCGTGT,0.311
12,TACCGTCA,0.555
13,CATCGTAC,1.09
14,AGGCGAAC,0.555
15,GTACGTTG,0.964
16,TCACGGAC,1.27
17,CCACGCGT,1.03
18,TGACGTTG,0.612
19,CCCCGCTT,1.01
20,ACTCGCGC,0.741
21,TTGCGCAT,0.766
22,CGACGACG,0.927
23,AGTCGACC,1.54
24,GCACGCAG,0.749
25,TATCGCCC,1.03

row,Sequence,relative CpG methylation activity
1,TATCGGCG,1.79
2,TCTCGGCT,1.8
3,CGCCGTGA,0.212
4,CAGCGTCA,0.82
5,CGACGAAG,0.749
6,TTTCGATC,1.95
7,GTTCGCGC,0.723
8,ACTCGTCA,0.659
9,GAACGTAG,0.908
10,CGCCGCCG,0.493
11,ATGCGCGG,0.718
12,ATACGTTT,1.1
13,CCGCGCCG,0.82
14,CGTCGTAT,0.345
15,CAACGTGA,0.699
16,CTTCGGCT,1.9
17,CGGCGCGC,0.42
18,AGACGGTC,1.51
19,ACCCGGGC,1.61
20,TTACGCCA,1.78
21,GCACGTCC,1.07
22,AGTCGACG,0.986
23,TAACGGTG,1.38
24,TGGCGCAA,0.0734
25,GGCCGTAG,0.142

row,Sequence,relative CpG methylation activity
1,AGCCGAGC,1.24
2,TGTCGAGA,1.03
3,GAGCGAAC,0.932
4,GAGCGTCA,0.656
5,ACACGAGA,1.76
6,ACACGAGC,1.79
7,GAACGTCG,1.04
8,CGACGGGC,1.39
9,TTACGCGC,1.81
10,AATCGGGC,1.55
11,TCACGGCA,1.82
12,CCGCGATC,1.06
13,AAGCGTTG,0.377
14,CATCGAGC,1.72
15,CTCCGGTC,1.8
16,TCACGGTA,1.49
17,CAGCGTAG,0.472
18,TCTCGAAC,1.66
19,CCTCGTAT,0.458
20,TAGCGCTG,0.548
21,ACTCGTTT,0.42
22,TCCCGAAT,1.55
23,ATTCGAAC,1.69
24,ACGCGCAT,0.61
25,CCACGAGT,1.6

row,Sequence,relative CpG methylation activity
1,CGCCGGGA,0.833
2,CACCGAGT,1.51
3,GTACGAAC,1.8
4,TAACGAGT,1.49
5,GCCCGTGG,0.247
6,GCACGCTA,0.861
7,TCTCGCTC,1.02
8,TTGCGGCT,1.95
9,ACGCGAAA,0.904
10,GACCGCTG,0.533
11,GCGCGCGG,0.613
12,TTTCGGTG,1.25
13,ATACGATT,1.74
14,GTGCGCCC,0.931
15,TCACGCCG,1.47
16,AGTCGGTA,1.22
17,ACACGTAG,0.727
18,CCTCGAGA,1.39
19,TCTCGGCA,1.58
20,TCACGCGA,0.767
21,GCACGCAC,0.888
22,CGGCGTTC,0.581
23,CTGCGGGG,1.25
24,CATCGCAC,0.75
25,GACCGTTA,0.198

row,Sequence,relative CpG methylation activity
1,GGTCGTTC,0.711
2,AAGCGCAT,0.493
3,TGTCGCAC,0.652
4,TCCCGCAA,0.636
5,AATCGGAA,0.631
6,TAGCGGGG,0.665
7,AGTCGTGT,0.154
8,TGGCGCTA,0.336
9,GCACGGAT,0.853
10,CCCCGAGG,1.5
11,ATCCGCAT,0.618
12,GCTCGAAC,1.13
13,TCCCGACC,1.46
14,GTCCGACC,1.63
15,TCTCGTTC,0.902
16,ACACGGTT,1.27
17,GGACGCTG,0.649
18,TCTCGAGC,1.53
19,ACACGTTT,0.779
20,GATCGAGG,1.38
21,AATCGGAT,0.83
22,GATCGGGT,1.25
23,GTCCGGGG,1.06
24,GTACGTTT,1.13
25,TCCCGTCG,0.762

row,Sequence,relative CpG methylation activity
1,AGGCGCCC,0.477
2,CCCCGGTC,1.46
3,ACACGGGC,1.54
4,CTTCGTCA,0.841
5,CGCCGAGA,1.26
6,CGCCGTCT,0.601
7,GGGCGTGT,0.309
8,GAGCGGCC,1.2
9,CTACGGTT,1.76
10,AGGCGGCG,0.992
11,TTGCGGTG,1.47
12,GGTCGTTA,0.214
13,GCGCGTGT,0.226
14,CTACGCTG,1.24
15,CCCCGCTA,0.989
16,CTTCGGCG,1.67
17,CTGCGCGA,0.74
18,TCACGAGG,1.7
19,TAACGTTG,0.892
20,CCGCGAGC,1.39
21,CAACGATT,1.76
22,AATCGACC,1.26
23,TGGCGAGA,1.16
24,GGGCGAGC,1.61
25,GTACGTCG,1.34

row,Sequence,relative CpG methylation activity
1,TTCCGAGG,1.42
2,ATCCGTAT,0.427
3,TCGCGTCG,0.591
4,CTTCGCAA,0.702
5,TTCCGAAT,1.58
6,GGTCGGTC,1.31
7,CTCCGACG,1.19
8,GACCGCTA,0.515
9,AGGCGCAG,0.465
10,GAGCGCAT,0.379
11,AAGCGAGG,0.891
12,GATCGAGA,1.31
13,ATACGGTC,1.68
14,AAACGGAA,1.15
15,ACGCGTGG,0.317
16,ATTCGCCC,1.02
17,TACCGACC,1.06
18,TCTCGAGT,1.45
19,ATACGAGA,1.82
20,GTCCGCAT,0.563
21,AAACGTCT,1.02
22,AGTCGCTT,0.812
23,CCGCGTCA,0.831
24,AATCGAAG,1.23
25,CGCCGGAC,0.668

row,Sequence,relative CpG methylation activity
1,TAGCGAGA,1.18
2,CGACGATT,1.37
3,TATCGCGG,0.48
4,CAACGACC,1.51
5,AATCGAAA,1.44
6,AATCGGGG,1.17
7,GTACGCAT,0.898
8,GGCCGAGT,1.04
9,GCGCGAGG,1.09
10,AGCCGGAT,0.421
11,TGTCGACT,1.15
12,GTACGACG,1.55
13,CCGCGAAC,1.18
14,ACGCGCCG,0.767
15,TGTCGCCA,0.888
16,TCCCGCAG,0.521
17,CAACGGCG,1.75
18,ACTCGGGG,1.19
19,AAGCGTAC,0.816
20,CCTCGCTT,0.633
21,TATCGCCG,0.876
22,ATCCGCTA,0.919
23,GCACGTGA,0.543
24,CCCCGGGG,1.48
25,TACCGTTT,0.367

row,Sequence,relative CpG methylation activity
1,TCACGATC,1.73
2,TTGCGTCT,0.804
3,TAGCGCAC,0.618
4,GGCCGCGC,0.361
5,CACCGCTT,0.521
6,CTTCGCCG,1.13
7,GCCCGTCC,1
8,AGTCGAAA,1.28
9,CCCCGGGT,1.23
10,ATCCGCTG,0.856
11,TAGCGTCG,0.463
12,ACTCGTGA,0.374
13,CGGCGGGT,0.576
14,TCCCGCCA,0.914
15,GGTCGTCA,0.469
16,CAGCGTGT,0.395
17,CCACGGAG,0.91
18,GACCGGCT,1.19
19,CTACGTTA,1.23
20,TCGCGTCC,1.05
21,TGGCGAAA,0.75
22,GCCCGTTG,0.357
23,TTACGCAA,1.46
24,ATTCGGAG,0.517
25,TATCGCGC,0.813

row,Sequence,relative CpG methylation activity
1,TAGCGGGC,0.929
2,AAACGGGC,1.53
3,ATTCGTTG,0.433
4,CACCGGTT,1.03
5,ATCCGCAA,0.62
6,CTCCGACC,1.41
7,ACCCGCTG,0.471
8,CCCCGGCG,1.95
9,GTGCGAAG,0.855
10,ACACGCTT,1.18
11,AGCCGGTC,0.888
12,TGCCGGAA,0.691
13,TGCCGGTT,0.661
14,TGGCGAGG,0.992
15,TGCCGGTA,0.798
16,GCTCGCTT,0.684
17,CGGCGGAC,0.58
18,GCCCGGCA,1.61
19,GCTCGCGC,0.688
